Experimental data from the supplement of paper PMC7826260.
The list shows a part of the results. The data describe in vitro nicking of single-stranded DNA by Rep domains (1 h at 37 °C, 3 µM enzyme); the outer parts of the 90-letter strands are left off. A value is the log2 ratio of uncut reads to the pool without enzyme; the lower, the more was cut; hits are not called. Reads are scaled to the total, so uncut sequences can rise above 0 when many others are cut.

Each sequence was assayed on T1, Rep nickase domain of tomato golden mosaic virus (assay: uncleaved DNA left, log2 of reads against the no-enzyme library (log2 ratio); higher = less cleavage (more negative = more Rep cleavage of the k-mer); sequences stand for … in CTCGTCCG…ACCGGAGA).
T1 sequence (residues 1-124, tag not shown): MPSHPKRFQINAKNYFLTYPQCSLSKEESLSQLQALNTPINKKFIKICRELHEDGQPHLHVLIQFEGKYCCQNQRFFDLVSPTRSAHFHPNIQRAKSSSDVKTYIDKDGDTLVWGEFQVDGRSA
Procedure: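 A pool of 90-nt single-stranded DNAs with seven random bases just before the constant AC of the nick site (name = the seven bases) was cut by 3 µM recombinant His6-SUMO-tagged Rep nickase domain (300 nM DNA, 50 mM HEPES pH 8.0, 50 mM NaCl, 1 mM MnCl2, 1 h, 37 °C, three replicates). Uncut DNA was amplified and sequenced.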

| Sequence | uncleaved DNA left (log2) |
| --- | --- |
| GCTGTTT | -0.00323 |
| CCCCCGC | -0.138 |
| GCGCCGT | -0.108 |
| GAAATGA | -0.0242 |
| TATGATT | -0.325 |
| GCGTAAT | -0.0301 |
| AAACTCA | 0.042 |
| CGTTGCA | -0.0557 |
| AACCTGG | 0.0923 |
| CTTCACC | -0.133 |
| TGACTAG | -0.0932 |
| GGATTCA | 0.0183 |
| GCCCCGG | 0.0991 |
| CAAACCG | 0.0426 |
| CTGGCGA | -0.0882 |
| TCCTCCA | -0.199 |
| CGGAGCG | -0.0538 |
| TAACCGC | -0.213 |
| TTGCAAT | 0.112 |
| AAGCTCT | 0.23 |

| Sequence | uncleaved DNA left (log2) |
| --- | --- |
| TTGCGAA | -0.0522 |
| AAAATGT | -0.042 |
| TTCCATA | 0.135 |
| TACAAGT | 0.12 |
| GACCTCG | -0.09 |
| GCGCTAC | -0.0542 |
| CTCGTAC | 0.132 |
| CGGTGAG | -0.112 |
| ACGATTT | -0.0459 |
| AACTAAT | -0.354 |
| GTGGATT | -0.0515 |
| TTGACGT | -0.0318 |
| CTGCACA | -0.214 |
| ATCGGTG | -0.081 |
| CGGACTA | -0.097 |
| ACTTCCC | -0.0341 |
| ATCTGTT | -0.196 |
| GCCCGGC | -0.0794 |
| AATCGAA | -0.00942 |
| GGGCACT | 0.0444 |
